Measured values: the supplement of paper PMC10126150
Values marked as one replicate rest on one cluster of the flow cell; about a third of the high ones do not repeat.

System: ATP
Test: switch fluorescence ratio, 500 uM ATP over buffer (Cy3 cluster intensity, sum of 5 cycles each) (fold (ratio)); higher = stronger signal-on switching upon ATP binding; sequences stand for … in TCGTCGGCAGCGTCAGATGTGTATAAGAGACAGTTTTTTTTTTTTTTTTTTTTTTTTT…TC
Conditions: aptamer strand: ATP DNA aptamer (quencher-CACCTGGGGGAGTATTGCGGAGGAAGG + anchor), 100 nM annealed; ATP concentration: 500 uM; one replicate
In short: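 Between each of five buffer/ATP cycles, the flow-cell was stripped with NaOH and re-annealed. Each cycle imaged Cy3-labelled switching-strand clusters, annealed to 100 nM quencher-labelled ATP aptamer on a modified Illumina MiSeq flow-cell, first in selection buffer and then after 15 min with 500 uM ATP at 22 °C. The fluorescence ratio is summed target-cycle over summed buffer-cycle Cy3 intensity per cluster, averaged per switch-domain sequence, with clusters outside 100-1000 RFU excluded.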
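Further: ATP exposure 15 min at 22 °C before imaging.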

Sequence	switch fluorescence ratio
AAGAATTGA	1
AGCTGGTTT	0.991
AAGATCGCAT	1.13
CGCTCTACTT	1.4
GTTCTTTTAA	0.937
CGTCAGCGTT	1.05
ATCGTCTACT	1.02
TTGAAGATCA	1.02
CGGGTCGACA	1.03
TTCGCGATTT	1.08
GCACTCAACC	1.13
GATATCGAAC	0.957
GCGGGTAAA	1.02
TTCAAAGAAT	1.01
GGGGCTATAG	1.02
ACGCGTCTTG	1.02
CGTTCGCCAT	1.24
TGATCACTAC	1.02
GCTCTGGTGA	1.13
TCGTTTATAG	1.02
CATCGATTTA	0.976
GTATTAATTC	0.949
TTGCACATGG	1.75
TAATATTTC	1.08
TTCATGTTAT	0.981
GGGACACGAT	1.05

Sequence	switch fluorescence ratio
GAGAGGTTAA	1.04
TGAATCGCAA	4.8
GCTTTTTTGT	0.968
ACACCCGGTA	1.15
GAATGCTGTT	0.977
TACGACGCTC	1
TGACACCGAG	1.1
GTCGGCGTGC	1.05
ACGAGTGGAT	0.996
TGAGGTTCAC	1.39
TAGTAAAACG	1.04
CTGCGCCCGT	1.04
ATTTGATATA	1.02
ATAGCGGGCA	0.912
ATAGTGTATC	0.986
TAACTCAGCG	1.04
AAAAGCTTGG	1
CGTAGGTAGC	0.997
CCGAGGTGT	1.48
TTGAGGGAAA	1
GGGCGTCGCG	0.991
TCATACGAGA	1.1
AGACCCAGAT	0.963
TTGGAAAGAT	0.999
TATCTGCATC	1.47
TGGACTTTCG	0.933

Sequence	switch fluorescence ratio
ATATGATGGG	0.991
TCCCTATTA	1.22
AGTGTGGATC	0.948
GGATCTTTTC	1.06
CTTACCGTTT	1.08
CTCAGTGTCA	1.03
ATAACACGGT	0.975
AGCCACGCGC	1.03
TTATCAGATA	0.988
GCTTGGTTAC	1.06
TCTTGTGTGG	1.02
TGGATTGAGT	1
GGCAAATGAG	1.06
TAACGGCGCC	0.965
CGGGCATCCT	1.01
TGAGACATTA	1.05
GACCAGGCAG	1.02
AAGCGAAGG	0.962
AAGCTAATTG	0.982
CAGTCAATGT	1.05
CTGAAGTACA	1.35
GTTTGCACAT	1.01
AGGGGTGAAT	1
TTATGCATAG	0.999
ACATGCTCG	0.998
GGGGTGGAGA	1.04

Sequence	switch fluorescence ratio
GGATTCTTGT	1
AATTTCTCTA	1
AGGCTGAAG	0.982
CGACATAAAA	0.988
ATGGTCGAGA	1.02
GCAGTCTATA	0.972
AATGGGGAT	0.948
TTAATCTGGT	1
CGAGCATCTG	1.08
AGGCCCTTC	0.999
TGTAGGGGAT	0.973
GACCGTCCCG	1.05
ACTTAGGCAA	1.28
GCCCATCTGG	0.994
GGCATACCTC	1.13
AAAGTTCGTT	1
ATTGCAGGTA	1.02
GGGTCGTTTT	0.955
ATAACCGGCA	1.07
CACTGAAGGG	1.02
CGGGTGATCT	1
GAGTGCGATT	1.01
TAAGCGGGCC	1
GTGACTAAAC	1.01
AGGGCGGGC	0.991
AAGCGAAGTG	1.05

Sequence	switch fluorescence ratio
TAAGGTGTGC	1.04
TTTGGAGTAT	1.19
TCGGATTCAT	1.09
CGCGTTTGGG	1.03
AGTCTTGAGG	0.984
TTCTCAAGTT	1.01
GTTGGCGTTC	1.03
GAGGACGTCG	1.05
AACGAAATGG	1.19
CGAACCCCTT	1.19
AGGGGACCCA	0.943
GTTTTTGGGA	0.961
CGTCGCTGGC	1.44
CAATTGTTGT	0.968
ACATCACGTA	1.61
ACTGGTCCTC	1.07
GATAGACAAA	0.971
AATATTGAGT	0.998
GGCAGACTCG	1
TATCCATTCC	1.39
GATCGTCCTT	0.99
TGCCTTCACG	1.17
GGTCCCAGCG	1.16
CAGATCTTAA	0.973
AAGCTAGTTA	0.995
CGGGATGAGT	1.01

Sequence	switch fluorescence ratio
GGGGGTCGCC	0.971
ATAAAGGATG	0.985
AAAACGAGTA	0.998
TGCAGTAGCA	1
TTGGAACACT	1
TCCGAGAAGA	1.64
TTATCGGT	0.996
TGCCTTGTTC	0.99
CCATGTGTCC	1.02
ATGGTGAGGT	1
GTTAACAGTG	1.04
TGCTAAACGA	1.05
GCCGTTTACG	1.01
ATAAATATCT	1.03
ATTAATGAGT	1
CAGTATGGTC	0.97
GCCGTCCAAG	1.01
GACTCATCCT	1.04
TTCATGTAGA	0.991
ACGTAGGGGA	0.978
GGACAAAGC	1.01
TATGTTTCGA	0.991
TTATGGCCGG	0.974
